Test results as given in PubChem BioAssay AID624202 (National Center for Advancing Translational Sciences (NCATS), 2012).
In all, about 380,000 compounds went through this assay and about 4,000 (1.1%) were called active. The inconclusive results got no clear call from the source; some entries with a clear call stand among them for comparison. Calls come from the whole dose curve; as a rule, active = well fitted activation curve with a large enough effect; inconclusive = small, poorly fitted or top-dose-only effect; inactive = no such curve, though single readings can be large or run the other way. A potency beside an inconclusive call is a rough fit, not a confirmed value.

Experiment: qHTS Assay to Identify Small Molecule Activators of BRCA1 Expression; note: nearly all actives have a fitted effect of over 80% in size
Conditions: MCF7-BRCA1-FFLuc reporter, luminescence, 48 h; series mostly up to 46.1 µM
In short: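 Compounds are tested at multiple concentrations on MCF7 BRCA1-luciferase reporter cells seeded at 2000 per well; after 48 h, a single luminescence end-point is taken and curves fitted to the normalized data.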
Potency is the fitted concentration of half-maximal effect; tags give direction and shape of the fitted curve.

SMILES	Potency
COc1ccc(NC(=O)c2ccc(C)cc2Cl)c([N+](=O)[O-])c1	inconclusive: 4.47 µM [activator, partial curve, poor fit]
CCC(=O)Nc1ccc(NC(=O)c2ccccc2)nc1	inconclusive: 0.708 µM [activator, full curve, poor fit]
COC(=O)c1sc2nc3c(cc2c1N)COC(C)(C)C3	active: 4.47 µM
C/C(=N\OC(=O)c1ccc(F)cc1)c1sc(-c2ccccc2)nc1C	active: 2.82 µM
Cc1ccccc1-c1nc2cc(N)ccc2o1	inconclusive: 0.631 µM [activator, full curve, poor fit]
Clc1ccc2nc(N3CCCCC3)sc2c1	inconclusive: 1.26 µM [activator, full curve, poor fit]
Cc1ccc(NC(=O)Cc2ccc(F)cc2)cc1	inconclusive: 11.2 µM [activator, partial curve, poor fit]
CN(CC(=O)N1CCCCCC1)S(=O)(=O)c1ccc(F)cc1	active: 10 µM
OCCN1CCN(CCOc2cccc(Cl)c2)CC1	inactive
COC(=O)c1ccc(NC2CC(=O)N(c3ccccc3C)C2=O)cc1 (stereo not given)	inconclusive: 17.8 µM [activator, single point]
CC(=O)c1sc(NC(=O)c2oc3ccc(F)cc3c2C)nc1C	inconclusive: 1.41 µM [activator, full curve, poor fit]
Cc1cc(C(=O)Nc2ccc(Br)cc2)cs1	inconclusive: 7.94 µM [activator, partial curve, poor fit]
N=c1oc2cc(O)ccc2cc1C(=O)Nc1ccc(F)cc1	active: 1.58 µM
Cc1[nH]nc(SCC(=O)N2CCC(C)CC2)c1[N+](=O)[O-]	inconclusive: 15.8 µM [activator, single point]
Cc1ccc(NC(=S)N2CCC(c3ccc(C)cc3)C2)cc1 (stereo not given)	active: 11.2 µM
NC(=O)c1ccccc1N/C=C/C(=O)c1ccc(Cl)cc1Cl	inconclusive: 0.631 µM [activator, full curve, poor fit]
c1ccc(Nc2ccnc(Nc3ccccc3)n2)cc1	inconclusive: 1 µM [activator, full curve, poor fit]
CS(=O)(=O)c1ccc(C(=O)OCC(=O)Nc2cccnc2Cl)cc1[N+](=O)[O-]	inactive
COc1ccc(/C=C/C(=O)Nc2cccnc2Cl)cc1	inconclusive: 12.6 µM [activator, partial curve, poor fit]
CCOC(=O)C1(Cc2ccccc2C(F)(F)F)CCN(C(=O)c2cc(C)n(C)n2)CC1	inconclusive: 11.2 µM [activator, partial curve, poor fit]
O=C1Nc2ccc(Cl)cc2C(=O)C1(F)c1ccccc1 (stereo not given)	inactive
COc1ccc2[nH]c(=O)c(CN(Cc3cccs3)C(=S)Nc3cccc(C)c3)cc2c1	inactive
O=C(NNC(=O)c1ccccc1Br)c1cccc(Cl)c1	inconclusive: 11.2 µM [activator, partial curve, poor fit]
Cc1occc1C(=O)N/N=C/C(Br)=C/c1ccccc1	inconclusive: 1.26 µM [activator, partial curve, poor fit]
Cc1scc(C(=O)N/N=C/c2ccc(Cl)s2)c1C	active: 7.08 µM

SMILES	Potency
O=C(/C=C/c1ccco1)Nc1nc(-c2ccccc2)cs1	active: 8.91 µM
COc1ccc(OC)c2sc(N3CCN(C(=O)CCS(=O)(=O)c4ccc(F)cc4)CC3)nc12	inactive
CCCC(=O)N1CCN(c2nc3ccc(Br)cc3s2)CC1	inconclusive: 5.01 µM [activator, full curve, poor fit]
CCn1c(SCc2ccccc2Cl)nc2ccccc21	inconclusive: 12.6 µM [activator, partial curve, poor fit]
O=C(N/N=C/c1ccccc1[N+](=O)[O-])c1cccs1	inconclusive: 11.2 µM [activator, partial curve, poor fit]
Cc1ccc2nc(NC(=O)c3ccc(Br)o3)sc2c1	inconclusive: 0.562 µM [activator, full curve, poor fit]
CSc1nc2ccc(NC(=O)c3ccco3)cc2s1	inconclusive: 2.82 µM [activator, full curve, poor fit]
O=C(CCSc1ccccc1)N1CCN(c2ccccc2)CC1	inconclusive: 3.98 µM [activator, partial curve, poor fit]
COc1ccc(NC(=O)Nc2ccc(F)c(Cl)c2)cc1	inconclusive: 0.794 µM [activator, full curve, poor fit]
CCC(=O)N1CCC1(C)C(=O)Nc1cc(-c2ccccc2)nn1C (stereo not given)	inconclusive: 10 µM [activator, partial curve, poor fit]
O=C(Cn1nnc(-c2ccccc2Cl)n1)N/N=C/c1ccc(-c2cccc(Cl)c2)o1	inactive
O=C(NCCc1ccccc1F)c1cccc2cccnc12	active: 2 µM
Clc1ccc2c(NCCNC3CCCCC3)ccnc2c1	inactive
c1ccc(CCNc2nc(-c3cccnc3)cs2)cc1	active: 8.91 µM
CC1(C(=O)OCC(=O)c2c[nH]c3ccccc23)CC1(Cl)Cl (stereo not given)	active: 8.91 µM
CSc1nnc(NC(=O)c2ccc(S(=O)(=O)N(C)C)cc2)s1	inconclusive: 1 µM [activator, full curve, poor fit]
CCOc1ccc(N=C(C)C2=C(O)c3ccccc3C2=O)cc1	inconclusive: 0.631 µM [activator, full curve, poor fit]
COc1ccccc1N(CC(=O)NCCSCc1ccc(C)cc1)S(=O)(=O)c1ccccc1	inactive
COc1ccc(C(CC(=O)N2CCOCC2)c2c(OC)cc(OC)c3c(-c4ccccc4)cc(=O)oc23)cc1 (stereo not given)	inactive
CN(C)C(=O)COc1ccc2cc(-c3ccccc3)c(=O)oc2c1	active: 11.2 µM
C/C(=N\NC(=O)c1ccc(O)cc1)c1ccc(NC(=O)Cc2ccccc2)cc1	active: 8.91 µM
O=C(CSc1nc2[nH]ncc2c(=O)[nH]1)NCc1ccc(F)cc1	inactive
Cc1nc(S/C(=C/c2ccc(-c3ccc(Cl)cc3)o2)C(=O)O)n[nH]1	inactive
CCOC(=S)N/C(=N\S(=O)(=O)c1ccccc1)c1ccccc1	inactive
COc1ccc(NC(=O)COC(=O)C2CCC2)cc1Cl	inactive

SMILES	Potency
Cn1c(SCc2ccccc2)nnc1-c1ccco1	inconclusive: 15.8 µM [activator, single point]
O=C(Nc1ccc2nc[nH]c2c1)c1ccco1	inconclusive: 11.2 µM [activator, partial curve, poor fit]
O=c1sc(N2CCN(c3ccccc3F)CC2)nc2ccsc12	inconclusive: 2.24 µM [activator, full curve, poor fit]
CCOc1ccc2cc(C#N)c(SCC(=O)N3CCOCC3)nc2c1	inconclusive: 2 µM [activator, full curve, poor fit]
CCC1CCc2sc(C(=O)NCC3CCCO3)cc2C1 (stereo not given)	inconclusive: 14.1 µM [activator, partial curve, poor fit]
Cc1ccc(S(=O)(=O)/N=C2/C=C(C3C(=O)CC(C)(C)CC3=O)C(=O)c3ccccc32)cc1	inactive
Cc1ccc(/C=N/c2sc3c(c2C#N)CCCCC3)o1	inconclusive: 31.6 µM [activator, single point]
COc1ccc(-c2nnn(Cc3ccccc3)n2)cc1	active: 10 µM
Cc1cc(CN(C)C(=O)c2ccc3nc(Cc4ccccc4F)oc3c2)on1	inconclusive: 22.4 µM [activator, single point]
CCc1ccc(NC(=O)NC2CCCCCCC2)cc1	inconclusive: 2.24 µM [activator, full curve, poor fit]
CCCCNc1c(CC(C)C)nc2nc(C)cc(C)n12	inactive
CC(CC(=O)N1CCc2ccccc21)c1ccccc1 (stereo not given)	inconclusive: 12.6 µM [activator, partial curve, poor fit]
COc1ccc(NC(=O)CSc2nccn2Cc2ccco2)cc1	inconclusive: 2.51 µM [activator, full curve, poor fit]
COc1cccc(C(=O)NC2=NCCS2)c1OC	active: 12.6 µM
COc1ccc(NC(=O)CSc2nnc(-c3ccccc3Cl)n2Cc2ccco2)c(OC)c1	inactive
Cc1ccc(C(=O)NNC(=O)c2cccc(C)c2)cc1	inconclusive: 14.1 µM [activator, partial curve, poor fit]
CSc1nsc(SCC(=O)Nc2ccc(C(N)=O)cc2)n1	inactive
Cc1nc2cc(NC(=O)CCS(=O)(=O)c3ccccc3)ccc2s1	inconclusive: 1 µM [activator, full curve, poor fit]
O=C(c1cc(COc2ccccc2)on1)N1CCCC(OCc2cccnc2)C1 (stereo not given)	inactive
CCOP(=O)(OCC)C(Nc1ccccc1)c1ccc2c(c1)OCO2 (stereo not given)	inactive
Cc1noc(C)c1-c1csc(N2CCC(C(N)=O)CC2)n1	inconclusive: 0.891 µM [activator, full curve, poor fit]
COc1cc(OC)cc(C(=O)Nc2nnc(NC(=S)Nc3ccccc3)s2)c1	inactive
CN(C)c1ccc(-c2nnn(CC(=O)NCc3ccc4c(c3)OCO4)n2)cc1	inconclusive: 22.4 µM [activator, single point]
COc1cccc(C(=O)N=c2sc3c(C)ccc(OC)c3n2C)c1	inconclusive: 3.55 µM [activator, partial curve, poor fit]
CC(=O)c1cnc2nc(SCc3ccccc3)nn2c1C	inconclusive: 17.8 µM [activator, partial curve, poor fit]
